Assay results reported in the RNAGym collection of RNA variant scans (doi:10.1093/nar/gkz1192).
The source gives no read counts; variants with many changes may rest on few reads.

B1: CPEB3 Ribozyme (parent)
chain: UAACAGGGGGCCACAGCAGAAGCGUUCACGUCGCAGCCCCUGUCAGAUUCUGGUGAAUCUGCGAAUUCUGCUGUAUAUCUC

Variants of: B1
Assay: self-cleavage, relative activity (ratio to wild type); higher = more cleavage; in vitro, sequencing
Procedure, shortened: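 Relative activity was defined as the cleaved/total read fraction for a variant divided by the same fraction for the unmutated ribozyme. CPEB3 self-cleaving ribozyme libraries were made by rounds of error-prone PCR, barcoded, and transcribed in vitro with T7 RNA polymerase for 5 hours at 37°C, and cleavage ran through transcription plus a 15 min DNase I step before EDTA. Illumina sequencing of template-switched reverse transcripts gave the reads, and DNA sequencing mapped the barcodes. Averages come from three batches, using variants with at least 5 reads.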
G7C A15G U31C G33U A57G showed a self-cleavage of 0.27.
Work on G7C A15U U60G yielded a self-cleavage of 0.12.
In the case of G7C A18G A20U C38U A45G U67A U78C, the self-cleavage is reported as 0.03.
With G7C A18G C38A the self-cleavage was 0.21.
G7C A18G U41C A56G gave a self-cleavage of 0.34.
For G7C A20G A21G U43G, the self-cleavage was 0.41.
Work on G7C A20G U74A A77U yielded a self-cleavage of 0.46.
Variant G7C A21G U78C has a self-cleavage of 0.29.
For G7C A28G C32U G53C A77G U78C, the self-cleavage was 0.13.
G7C A28G C34U C39A U69C gave a self-cleavage of 0.11.
G7C A28G C34U U41C U54C U76C showed a self-cleavage of 0.1.
In the case of G7C A28U U51C U54G, the self-cleavage is reported as 0.19.
G7C A35C U54C U66C U72A showed a self-cleavage of 0.09.
Work on G7C A35C U69C yielded a self-cleavage of 0.22.
Variant G7C A35G U48C G55C has a self-cleavage of 0.3.
Work on G7C A45G U58C U60A U69C yielded a self-cleavage of 0.
G7C C12G U43C A45G U66C showed a self-cleavage of 0.04.
Work on G7C C12U U26C U72A yielded a self-cleavage of 0.05.
In the case of G7C C17U A47U, the self-cleavage is reported as 0.41.
Work on G7C C17U U41G yielded a self-cleavage of 0.08.
With G7C C23U U51A A56G the self-cleavage was 0.09.
G7C C27U A28G U51C U78C showed a self-cleavage of 0.05.
For G7C C32U G55A, the self-cleavage was 0.15.
Work on G7C G8A A13G U74A yielded a self-cleavage of 0.64.
Work on G7C G9A A13U A15U A47U U74A yielded a self-cleavage of 0.36.
Variant G7C G9U A75U has a self-cleavage of 0.32.
G7C G10A A18U U72C A75G gave a self-cleavage of 0.38.
G7C G19A U41C U43C U60C showed a self-cleavage of 0.19.
Variant G7C G19U U72A has a self-cleavage of 0.23.
G7C G24A U69C U72C U74A gave a self-cleavage of 0.2.
In the case of G7C G24C A35G A57G U66C U78A, the self-cleavage is reported as 0.04.
In the case of G7C G55U U72C, the self-cleavage is reported as 0.31.
In the case of G7C U25A G33U A35C C62U U72G, the self-cleavage is reported as 0.08.
Work on G7C U26A C68U yielded a self-cleavage of 0.31.
Variant G7C U26C U41C G61C U66C U69A has a self-cleavage of 0.25.
Work on G7C U26C U54C yielded a self-cleavage of 0.28.
Work on G7C U26C U66A yielded a self-cleavage of 0.18.
In the case of G7C U31A U43G U51C U58C, the self-cleavage is reported as 0.1.
Variant G7C U31C U49C U51C U78C has a self-cleavage of 0.19.
Work on G7C U43C U49C U69C yielded a self-cleavage of 0.64.
With G7C U48C U69A the self-cleavage was 0.05.
G7C U49C A57U A64G U67C gave a self-cleavage of 0.07.
For G7C U51A A64G U66C U72C, the self-cleavage was 0.18.
G7C U51C A65U U78C U80C gave a self-cleavage of 0.04.
Variant G7C U54C U66G U80C has a self-cleavage of 0.06.
With G7C U58C U66C the self-cleavage was 0.05.
In the case of G7C U60C A64G U67C, the self-cleavage is reported as 0.19.
Work on G7U A13C U43A A45G G73A A77U yielded a self-cleavage of 0.09.
For G7U A13G A21G U25C A35G, the self-cleavage was 0.03.
G7U A13G A64G G70C A75U gave a self-cleavage of 0.04.
Variant G7U A13G C17G U41C has a self-cleavage of 0.6.
With G7U A13G U31C U74A U78C the self-cleavage was 0.09.
G7U A13G U54C gave a self-cleavage of 0.07.
Variant G7U A13U A20G U43A G52A U58C has a self-cleavage of 0.24.
G7U A13U A56G gave a self-cleavage of 0.18.
With G7U A13U A65G the self-cleavage was 0.17.
For G7U A15G A18G U25A C79A U80C, the self-cleavage was 0.05.
Work on G7U A15G A45C U51C G52C A56G U60A yielded a self-cleavage of 0.08.
G7U A15G U25C A57G gave a self-cleavage of 0.69.
Work on G7U A15G U49G U60A U76C yielded a self-cleavage of 0.15.
In the case of G7U A15G U66C, the self-cleavage is reported as 0.1.
G7U A15U A21G U54C A64G U69C gave a self-cleavage of 0.04.
With G7U A15U C37U U67A U78C the self-cleavage was 0.04.
For G7U A15U G55C U72C, the self-cleavage was 0.22.
In the case of G7U A18G U49C U54C, the self-cleavage is reported as 0.07.
G7U A18U A20C G30U A56G showed a self-cleavage of 0.05.
Variant G7U A18U A20G U48C U54C A64G A75U has a self-cleavage of 0.05.
Variant G7U A18U A21G A45U U60C has a self-cleavage of 0.16.
Work on G7U A18U U72C U76A yielded a self-cleavage of 0.04.
In the case of G7U A20G A28U U72C, the self-cleavage is reported as 0.07.
For G7U A20G G30C, the self-cleavage was 0.39.
G7U A20G U58C U67C gave a self-cleavage of 0.13.
Variant G7U A20U A35G U60C A65G U74C has a self-cleavage of 0.15.
With G7U A20U U60C U69A the self-cleavage was 0.05.
In the case of G7U A21G A35G A45G U60C A65G U74C, the self-cleavage is reported as 0.04.
In the case of G7U A21G A45U G52A U76A, the self-cleavage is reported as 0.35.
Variant G7U A21G C38A G46A U67C U78C has a self-cleavage of 0.08.
G7U A21G C39G showed a self-cleavage of 0.18.
G7U A21G U31C U41C U49C A65G gave a self-cleavage of 0.03.
With G7U A28G G53C U78C the self-cleavage was 0.13.
Variant G7U A28G U41C U51A has a self-cleavage of 0.05.
G7U A28G U58C gave a self-cleavage of 0.39.
G7U A28G U78C gave a self-cleavage of 0.08.
G7U A28U U41A U51A U72C showed a self-cleavage of 0.06.
